In the supplement of paper PMC7826260:
The list shows a part of the results. One pool of 16,384 single-stranded DNAs met each Rep nickase domain in vitro at 3 µM enzyme and 37 °C for 1 h; the strands have 90 letters, of which the middle is given. A value is the log2 ratio of uncut reads to the pool without enzyme; the lower, the more was cut; hits are not called. Reads are scaled to the total; values above 0 arise when much of the pool is cut.

Experiments:
Assay in all cases: uncleaved DNA left, log2 of reads against the no-enzyme library (log2 ratio); higher = less cleavage (more negative = more Rep cleavage of the k-mer); sequences stand for … in CTCGTCCG…ACCGGAGA
[1] = test system: T1, Rep nickase domain of Muscovy duck circovirus
T1 sequence (Rep 1-111, printed without the tag): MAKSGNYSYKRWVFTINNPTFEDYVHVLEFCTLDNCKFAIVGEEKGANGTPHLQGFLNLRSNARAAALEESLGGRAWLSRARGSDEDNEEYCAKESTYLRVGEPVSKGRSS
Experimental: (§1)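 A pool of 90-nt single-stranded DNAs with seven random bases just before the constant AC of the nick site (name = the seven bases) was cut by 3 µM recombinant His6-SUMO-tagged Rep nickase domain (300 nM DNA, 50 mM HEPES pH 8.0, 50 mM NaCl, 1 mM MnCl2, 1 h, 37 °C, three replicates). Uncut DNA was amplified and sequenced.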

[2] = test system: T2, Rep nickase domain of banana bunchy top virus
T2 sequence (Rep 1-94, printed without the tag): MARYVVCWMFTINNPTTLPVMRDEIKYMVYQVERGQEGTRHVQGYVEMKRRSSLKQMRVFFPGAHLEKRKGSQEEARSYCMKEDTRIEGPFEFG
Experimental: as §1

[3] = test system: T3, Rep nickase domain of cabbage leaf curl virus
T3 sequence (Rep 1-116, printed without the tag): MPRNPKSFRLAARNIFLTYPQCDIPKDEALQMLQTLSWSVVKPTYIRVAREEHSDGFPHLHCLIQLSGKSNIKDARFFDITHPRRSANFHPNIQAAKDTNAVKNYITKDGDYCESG
Experimental: as §1

[4] = test system: T4, Rep nickase domain of chickpea chlorotic dwarf virus
T4 sequence (Rep 1-124, printed without the tag): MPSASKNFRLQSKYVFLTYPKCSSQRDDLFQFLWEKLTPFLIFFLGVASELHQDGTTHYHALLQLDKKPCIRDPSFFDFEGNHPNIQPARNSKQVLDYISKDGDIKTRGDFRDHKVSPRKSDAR
Experimental: as §1

[5] = test system: T5, Rep nickase domain of faba bean necrotic yellows virus
T5 sequence (Rep 1-98, printed without the tag): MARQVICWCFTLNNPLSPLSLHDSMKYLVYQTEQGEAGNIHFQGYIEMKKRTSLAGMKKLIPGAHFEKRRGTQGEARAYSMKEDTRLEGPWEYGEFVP
Experimental: as §1

[6] = test system: T6, Rep nickase domain of maize striate mosaic virus
T6 sequence (Rep 1-117, printed without the tag): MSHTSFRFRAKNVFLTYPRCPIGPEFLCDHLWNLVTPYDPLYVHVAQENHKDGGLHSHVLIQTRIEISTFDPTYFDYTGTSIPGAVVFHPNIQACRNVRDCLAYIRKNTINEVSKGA
Experimental: as §1

[7] = test system: T7, Rep nickase domain of porcine circovirus 2
T7 sequence (Rep 2-116, printed without the tag): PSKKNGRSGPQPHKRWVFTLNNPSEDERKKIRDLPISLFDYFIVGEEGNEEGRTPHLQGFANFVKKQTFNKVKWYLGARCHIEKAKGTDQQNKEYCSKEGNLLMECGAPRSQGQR
Experimental: as §1

[8] = test system: T8, Rep nickase domain of tomato golden mosaic virus
T8 sequence (Rep 1-124, printed without the tag): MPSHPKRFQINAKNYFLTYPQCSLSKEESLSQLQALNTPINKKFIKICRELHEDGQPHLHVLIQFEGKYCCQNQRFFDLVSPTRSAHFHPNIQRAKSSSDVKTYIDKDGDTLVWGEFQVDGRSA
Experimental: as §1

[9] = test system: T9, Rep nickase domain of tomato yellow leaf curl virus
T9 sequence (Rep 1-136, printed without the tag): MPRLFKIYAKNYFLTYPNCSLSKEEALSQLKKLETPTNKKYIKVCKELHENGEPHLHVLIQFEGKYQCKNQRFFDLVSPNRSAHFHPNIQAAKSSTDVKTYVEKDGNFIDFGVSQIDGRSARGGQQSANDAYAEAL
Experimental: as §1

[10] = test system: T10, Rep nickase domain of wheat dwarf virus
T10 sequence (Rep 1-137, printed without the tag): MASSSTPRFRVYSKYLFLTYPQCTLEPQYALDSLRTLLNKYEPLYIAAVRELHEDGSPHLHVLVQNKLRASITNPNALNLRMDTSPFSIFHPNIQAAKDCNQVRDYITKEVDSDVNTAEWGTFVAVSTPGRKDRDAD
Experimental: as §1

Sequence | uncleaved DNA left (log2) [1] | uncleaved DNA left (log2) [2] | uncleaved DNA left (log2) [3] | uncleaved DNA left (log2) [4] | uncleaved DNA left (log2) [5] | uncleaved DNA left (log2) [6] | uncleaved DNA left (log2) [7] | uncleaved DNA left (log2) [8] | uncleaved DNA left (log2) [9] | uncleaved DNA left (log2) [10]
TGAGATG | 0.158 | -0.0626 | 0.167 | 0.83 | 0.108 | 1.13 | 0.109 | 0.114 | -0.0495 | -0.0759
AAGTTGA | 0.0427 | 0.0747 | 0.19 | 0.24 | 0.0575 | 0.253 | -2.03 | 0.128 | 0.0959 | 0.145
GGGCATA | 0.0228 | 0.113 | 0.859 | 1.99 | 0.0129 | 2.24 | 0.0886 | -0.0203 | -0.0719 | 0.0365
AGGCGCC | -0.000931 | -0.0681 | -0.0261 | 0.0754 | 0.0243 | -0.154 | 0.137 | 0.0734 | -0.0812 | 0.0432
